Experimental findings from US20240158504A1 (BJ BIOSCIENCE, published 2024) are described below.

This assay deals with TGF-β1. Description: cell-based or functional assay.

B1: BJ-005-P4 (other)
heavy: QVQLQESGPGLVKPSETLSLTCTVTGDSITSGYWNWIRQPAGKGLEYMGYISYTGSTYYNPSLKSRLTISRDTSKNQYSLKLSSVTAADTAVYYCGSQREWLLHTDYWGQGTLVTVSSASTKGPSVFPLAPSSKSTSGGTAALGCLVKDYFPEPVTVSWNSGALTSGVHTFPAVLQSSGLYSLSSVVTVPSSSLGTQTYICNVNHKPSNTKVDKRV[human IgG1 Fc and a few adjoining residues not listed]GGGSGGGGSGGGGSGGGGSTIPPHVQKSVNNDMIVTDNNGAVKFPQLCKFCDVRFSTCDNQKSCMSNCSITSICEKPQEVCVAVWRKNDENITLETVCHDPKLPYHDFILEDAASPKCIMKEKKKPGETFFMCSCSSDECNDNIIFSEEYNTSNPD
light: DIVMTQSPDSLAVSLGERATINCKSSQSLLYTSNQKNSLAWYQQKPGQPPKLLIYWASTRESGVPDRFSGSGSGTDFTLTISSLQAEDVAVYYCQQYYGYPYTFGQGTKLEIKRTVAAPSVFIFPPSDEQLKSGTASVVCLLNNFYPREAKVQWKVDNALQSGNSQESVTEQDSKDSTYSLSSTLTLSKADYEKHKVYACEVTHQGLSSPVTKSFNRGEC
In the case of B1, the “IC50 (nM), SEAP level of HEK-Blue TGF-β cells stimulated with TGF-β1” value worked out at 0.0587 nM.
